Assay results from the supplement of paper PMC8728848.
The other results are listed elsewhere or left out.

Legend:
Test in all cases: glycan array binding signal (z-score within array); higher = stronger binding
Settings in all cases: glycan notation: IUPAC condensed, linker removed
[1] = target: Gal6S(b1-4)Glc6S
Procedure, shortened: (§1)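 Glycan array data were curated from 3228 arrays in the Consortium for Functional Glycomics database and kept only where the protein sequence was available. Glycan names were converted to IUPAC-condensed notation, and columns mapping to the same glycan were averaged. The binding signal is a within-array Z-score, averaged across arrays of the same protein sequence at different concentrations or buffers and across linkers. Negative Z-scores can be read as non-binding.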

[2] = target: Gal6S(b1-4)GlcNAc
Procedure, shortened: as §1

[3] = target: Gal6S(b1-4)GlcNAc6S
Procedure, shortened: as §1

[4] = target: GalNAc(a1-3)Gal
Procedure, shortened: as §1

[5] = target: GalNAc(a1-3)GalNAc
Procedure, shortened: as §1

[6] = target: GalNAc(a1-3)GalNAc(b1-3)Gal(a1-4)Gal(b1-4)Glc
Procedure, shortened: as §1

[7] = target: GalNAc(a1-3)GalNAc(b1-3)Gal(a1-4)Gal(b1-4)GlcNAc
Procedure, shortened: as §1

[8] = target: GalNAc(b1-3)Gal
Procedure, shortened: as §1

[9] = target: GalNAc(b1-3)Gal(a1-4)Gal(b1-4)GlcNAc
Procedure, shortened: as §1

[10] = target: GalNAc(b1-3)Gal(a1-4)Gal(b1-4)GlcNAc(b1-3)Gal(b1-4)Glc
Procedure, shortened: as §1

[11] = target: GalNAc(b1-3)Gal(a1-6)Gal(b1-4)Glc
Procedure, shortened: as §1

[12] = target: GalNAc(b1-3)GalNAc
Procedure, shortened: as §1

[13] = target: GalNAc(b1-4)Gal(b1-4)Glc
Procedure, shortened: as §1

[14] = target: GalNAc(b1-4)GlcNAc
Procedure, shortened: as §1

[15] = target: GalNAc(b1-4)GlcNAc(b1-2)Man(a1-3)[GalNAc(b1-4)GlcNAc(b1-2)Man(a1-6)]Man(b1-4)GlcNAc(b1-4)GlcNAc
Procedure, shortened: as §1

[16] = target: GalNAc(b1-6)GalNAc
Procedure, shortened: as §1

[17] = target: Glc(a1-4)Glc
Procedure, shortened: as §1

[18] = target: Glc(a1-4)Glc(a1-4)Glc(a1-4)Glc
Procedure, shortened: as §1

[19] = target: Glc(a1-6)Glc(a1-6)Glc
Procedure, shortened: as §1

[20] = target: Glc(a1-6)Glc(a1-6)Glc(a1-6)Glc
Procedure, shortened: as §1

[21] = target: Glc(b1-4)Glc
Procedure, shortened: as §1

[22] = target: Glc(b1-6)Glc
Procedure, shortened: as §1

[23] = target: GlcA(b1-3)Gal
Procedure, shortened: as §1

[24] = target: GlcA(b1-3)GlcNAc
Procedure, shortened: as §1

[25] = target: GlcA(b1-6)Gal
Procedure, shortened: as §1

[26] = target: GlcNAc(a1-3)Gal(b1-4)GlcNAc
Procedure, shortened: as §1

[27] = target: GlcNAc(a1-4)Gal(b1-3)GlcNAc
Procedure, shortened: as §1

[28] = target: GlcNAc(a1-4)Gal(b1-4)GalNAc
Procedure, shortened: as §1

[29] = target: GlcNAc(a1-4)Gal(b1-4)GlcNAc
Procedure, shortened: as §1

[30] = target: GlcNAc(a1-4)Gal(b1-4)GlcNAc(b1-3)Gal(b1-4)Glc
Procedure, shortened: as §1

[31] = target: GlcNAc(a1-4)Gal(b1-4)GlcNAc(b1-3)Gal(b1-4)GlcNAc
Procedure, shortened: as §1

[32] = target: GlcNAc(a1-4)Gal(b1-4)GlcNAc(b1-3)Gal(b1-4)GlcNAc(b1-3)Gal(b1-4)GlcNAc
Procedure, shortened: as §1

[33] = target: GlcNAc(a1-4)Gal(b1-4)GlcNAc(b1-3)Gal(b1-4)[Fuc(a1-3)]GlcNAc(b1-3)Gal(b1-4)[Fuc(a1-3)]GlcNAc
Procedure, shortened: as §1

[34] = target: GlcNAc(a1-6)Gal(b1-4)GlcNAc
Procedure, shortened: as §1

[35] = target: GlcNAc(b1-2)Gal(b1-3)GalNAc
Procedure, shortened: as §1

[36] = target: GlcNAc(b1-2)Man(a1-3)[GlcNAc(b1-2)Man(a1-6)]Man(b1-4)GlcNAc(b1-4)GlcNAc
Procedure, shortened: as §1

[37] = target: GlcNAc(b1-2)Man(a1-3)[GlcNAc(b1-2)Man(a1-6)]Man(b1-4)GlcNAc(b1-4)[Fuc(a1-6)]GlcNAc
Procedure, shortened: as §1

[38] = target: GlcNAc(b1-2)Man(a1-3)[GlcNAc(b1-4)][GlcNAc(b1-2)Man(a1-6)]Man(b1-4)GlcNAc(b1-4)GlcNAc
Procedure, shortened: as §1

[39] = target: GlcNAc(b1-2)[GlcNAc(b1-4)]Man(a1-3)[GlcNAc(b1-2)Man(a1-6)]Man(b1-4)GlcNAc(b1-4)GlcNAc
Procedure, shortened: as §1

[40] = target: GlcNAc(b1-2)[GlcNAc(b1-4)]Man(a1-3)[GlcNAc(b1-4)][GlcNAc(b1-2)Man(a1-6)]Man(b1-4)GlcNAc(b1-4)GlcNAc
Procedure, shortened: as §1

[41] = target: GlcNAc(b1-2)[GlcNAc(b1-4)]Man(a1-3)[GlcNAc(b1-4)][GlcNAc(b1-2)[GlcNAc(b1-6)]Man(a1-6)]Man(b1-4)GlcNAc(b1-4)GlcNAc
Procedure, shortened: as §1

[42] = target: GlcNAc(b1-2)[GlcNAc(b1-6)]Man(a1-6)[GlcNAc(b1-2)Man(a1-3)]Man(b1-4)GlcNAc(b1-4)GlcNAc
Procedure, shortened: as §1

[43] = target: GlcNAc(b1-2)[GlcNAc(b1-6)]Man(a1-6)[GlcNAc(b1-2)Man(a1-3)][GlcNAc(b1-4)]Man(b1-4)GlcNAc(b1-4)GlcNAc
Procedure, shortened: as §1

[44] = target: GlcNAc(b1-3)Gal
Procedure, shortened: as §1

[45] = target: GlcNAc(b1-3)Gal(b1-3)GalNAc
Procedure, shortened: as §1

B1: Gz-CVNH (Gibberella zeae) (protein)
chain: MGSSHHHHHHSSGLVPRGSHMGNFHESSNNIWLEDGHILHAECGNGEGDYVESTLDLDYYIGNDDGSFSWGGENFSGSASNITLDIEGDDNIPVLRAELNPMDGDPVEANVNLSERIGNDCGTLIFLA
[1]
  glycan array binding signal (z-score): -0.139
[2]
  glycan array binding signal (z-score): -0.159
[3]
  glycan array binding signal (z-score): -0.111
[4]
  glycan array binding signal (z-score): -0.131
[5]
  glycan array binding signal (z-score): -0.151
[6]
  glycan array binding signal (z-score): -0.115
[7]
  glycan array binding signal (z-score): -0.158
[8]
  glycan array binding signal (z-score): -0.146
[9]
  glycan array binding signal (z-score): -0.175
[10]
  glycan array binding signal (z-score): -0.132
[11]
  glycan array binding signal (z-score): -0.12
[12]
  glycan array binding signal (z-score): -0.162
[13]
  glycan array binding signal (z-score): -0.141
[14]
  glycan array binding signal (z-score): -0.145
[15]
  glycan array binding signal (z-score): 0.031
[16]
  glycan array binding signal (z-score): -0.158
[17]
  glycan array binding signal (z-score): -0.146
[18]
  glycan array binding signal (z-score): -0.156
[19]
  glycan array binding signal (z-score): -0.178
[20]
  glycan array binding signal (z-score): -0.125
[21]
  glycan array binding signal (z-score): -0.165
[22]
  glycan array binding signal (z-score): -0.117
[23]
  glycan array binding signal (z-score): -0.144
[24]
  glycan array binding signal (z-score): -0.125
[25]
  glycan array binding signal (z-score): -0.151
[26]
  glycan array binding signal (z-score): -0.169
[27]
  glycan array binding signal (z-score): -0.097
[28]
  glycan array binding signal (z-score): -0.117
[29]
  glycan array binding signal (z-score): -0.142
[30]
  glycan array binding signal (z-score): -0.133
[31]
  glycan array binding signal (z-score): 0.066
[32]
  glycan array binding signal (z-score): -0.131
[33]
  glycan array binding signal (z-score): 0.061
[34]
  glycan array binding signal (z-score): -0.154
[35]
  glycan array binding signal (z-score): -0.153
[36]
  glycan array binding signal (z-score): -0.129
[37]
  glycan array binding signal (z-score): -0.01
[38]
  glycan array binding signal (z-score): -0.119
[39]
  glycan array binding signal (z-score): -0.15
[40]
  glycan array binding signal (z-score): -0.119
[41]
  glycan array binding signal (z-score): -0.112
[42]
  glycan array binding signal (z-score): -0.104
[43]
  glycan array binding signal (z-score): -0.14
[44]
  glycan array binding signal (z-score): -0.165
[45]
  glycan array binding signal (z-score): -0.101
